The list shows a part of the results.
Test system: T1, C. trachomatis L2/434/Bu expressing GFP (CTL2-GFP)
T1 construct: L2/434/Bu GFP intracellular growth in HeLa cells
Set-up: species or system HeLa; C. trachomatis total inclusion area by high-content imaging, normalised to DMSO
Settings: total inclusion area; 28.5 h, 10 µM; inhibitor
In short: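 Host cell viability was gauged from Hoechst-stained nuclei counts, while chlamydial growth was taken from total inclusion area and inclusion number per well. Cells were fixed and imaged by high-content microscopy once bulk GFP and resorufin fluorescence had been measured.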

Structure (SMILES) | % of control remaining
COc1ccc(NC2=CC(=O)CC(c3ccc(C)cc3)C2)c(OC)c1 (stereo not shown) [CBK264845] | 94.0378
Cc1cc(N2CCN(C(=O)c3c[nH]c(=O)[nH]3)CC2)nc(C(C)C)n1 [CBK296681] | 94.0273
Cc1cc(C)c(OCCOCCN2CCNCC2)c(Br)c1 [CBK266079G] | 75.674
Cc1cc2nc(SCCNC(=O)c3ccc(Cl)cc3)nc(C)c2cc1C [CBK266223] | 106.315
Cn1nc(C2CCCC2)cc1[C@H]1CN2CC[C@H]1C[C@@H]2CNS(=O)(=O)c1ccccc1 [CBK288741] | 80.485
O=C(NCc1ccccc1)c1ccc(N2C(=O)CSC23C(=O)Nc2ccccc23)cc1 (stereo not shown) [CBK093476] | 79.9702
Cc1nc(CCNC(=O)N2CCC(Oc3cccnc3)CC2)sc1Cl [CBK306636] | 80.2087
O=C1CC2(CCN(Cc3ccc(C(F)(F)F)cc3)CC2)CN1 [CBK283359] | 102.788
Cc1cccc(=O)n1CCCNc1cc(C2CCOC2)nc(N)n1 (stereo not shown) [CBK307030] | 69.0877
Cc1ccnc(NCC2CCN(CC(=O)NC3(C#N)CCCC3)C2)c1 (stereo not shown) [CBK306128] | 72.84
O=C(Nc1cccc2cc[nH]c12)c1cc(F)c(Cl)cc1F [CBK160080] | 103.526
CC(=O)c1ccc(NC(=O)c2cccc(Cl)c2)cc1 [CBK033939] | 46.1143
CC(=O)Nc1cccc(-n2cnnc2SCC2CCCCC2)c1 [CBK305054] | 27.4847
O=C(Cn1c(C2CCCNC2)cc2cccnc21)NC1CCCC1 (stereo not shown) [CBK285059] | 73.1657
O=C(Nn1cnnc1)c1ccc(C(=O)Nn2cnnc2)cc1 [CBK261111] | 103.576
CCOc1cccc(-c2cncc(NC(C)CCCC(C)(C)O)n2)c1 (stereo not shown) [CBK066020] | 175.595
C1=C(CNC(Cc2cccs2)c2nccs2)COCC1 (stereo not shown) [CBK284682] | 53.2908
CC1=C(C(=O)Nc2ccccc2)C(c2cccs2)C(C#N)=C(SCC(=O)c2ccc(Br)cc2)N1 (stereo not shown) [CBK261384] | 65.5073
COc1ccccc1N1C(=O)[C@H]2N=C(C(=O)c3cnccn3)N[C@H]2C1=O [CBK021406] | 102.854
CN(CC(=O)NC1CCCCC1)S(=O)(=O)c1ccc(F)cc1 [CBK091832] | 71.0599
O=C(OCn1nnc2ccccc2c1=O)c1cccc([N+](=O)[O-])c1 [CBK264887] | 80.9706
CC(C)Cc1csc(C2CN3CCCC3CO2)n1 (stereo not shown) [CBK304807] | 71.2017
Cc1ccc(S(=O)(=O)NC(=O)N(Cc2ccccc2)Cc2ccco2)cc1 [CBK269524] | 103.205
CC(C)c1ccc(S(=O)(=O)n2c(=O)n(CCc3c[nH]c4ccccc34)c3ccccc32)cc1 [CBK106518] | 82.3792
Cn1c(N2CC[C@H](O)C2)nc2cc(C(=O)NC[C@@H]3CCCO3)ccc21 [CBK307433] | 74.9818
Cc1cccc(-c2ccc(CC3(C(=O)NC(C)C)CCN(C(=O)C(C)(C)C)CC3)cc2)c1 [CBK285758] | 118.809
Cn1nccc1C(=O)Nc1nc(-c2ccccc2)cs1 [CBK287833] | 68.5673

Structure (SMILES) | % of control remaining
COc1ccc(CC(=O)NCc2nc(-c3ccc(OC)cc3)no2)cc1 [CBK270043] | 83.9033
CC(C)Cn1c(=O)[nH]c2ncc(-c3cncnc3)nc21 [CBK064177] | 105.724
O=C(c1cccnc1)N1CCN(Cc2cccc([N+](=O)[O-])c2)CC1 [CBK263020] | 84.9764
COc1ccccc1Oc1nnnn1-c1ccc(C(N)=O)cc1 [CBK267988] | 115.867
COC(=O)c1ccc(Cl)cc1N(Cc1c(F)cccc1Cl)S(C)(=O)=O [CBK021351] | 87.0725
CCOCCNS(=O)(=O)c1ccc(C(C)(C)CC)cc1 [CBK044655] | 92.2342
Cc1ccc(C2(C(=O)N3CCC(O)(c4ccccn4)CC3)CC2)cc1 [CBK283754] | 112.614
N#Cc1cccc(C(=O)N2CCCC3(CCN(Cc4ccccc4)C3)C2)c1 (stereo not shown) [CBK136893] | 103.026
O=C1NC2(CCCN(C(=O)c3ccco3)C2)Nc2ccccc21 (stereo not shown) [CBK284803] | 78.3094
Cc1cc(NC(=O)Cc2ccc(Cl)c(Cl)c2)c2ccccc2n1 [CBK116266] | 81.5051
CCCOC(=O)Cn1cnc2sc(C)c(C)c2c1=O [CBK304371] | 102.818
CCN(Cc1ccccc1)C(=O)NCCc1c[nH]cn1 [CBK155220] | 101.746
CS(=O)(=O)N1CC2(CCN(CCO)CC2)c2ccccc21 [CBK126677] | 103.367
O=C1N2CCSC2=NC1(Nc1nccs1)C(F)(F)F (stereo not shown) [CBK267484] | 106.301
CSc1nnc(-c2ccc(Br)cc2)o1 [CBK026502] | 62.8632
CCc1c(C)cc(C(=O)N(C)C(CC)c2ccccn2)c(=O)n1C (stereo not shown) [CBK307078] | 57.8072
CC(C)[C@H](CO)n1c(=O)[nH]c2ncc(-c3cccc4ncccc34)nc21 [CBK064955] | 117.334
NC(=O)C1CCN(C(=O)c2cc(O)nc3ccccc23)CC1 [CBK296719] | 83.2246
Cc1ccc(NS(=O)(=O)c2cc(C(=O)Nc3ccc(S(=O)(=O)N4CCCC4)cc3)ccc2C)cc1 [CBK268784] | 66.6954
O=C(O)c1cccc2c1C(=O)C(CC1CCCO1)N2 (stereo not shown) [CBK287140] | 106.446
c1cnc(-c2ccsc2)c(OC2CCCCC2)n1 [CBK106764] | 107.636
O=[N+]([O-])c1cccc(C(Nc2ccccn2)n2cnc3ccccc32)c1 (stereo not shown) [CBK261145] | 76.5759
Cc1noc(C)c1S(=O)(=O)Nc1csc(C(F)(F)F)c1-c1ccccc1 [CBK001237] | 96.1525
Cc1cc(OC(C)C(=O)Nc2ccccc2C(=O)N2CCCC2)ccc1Cl (stereo not shown) [CBK269710] | 98.7166
CCCn1c(SCC(=O)N2CCc3ccccc32)nc(O)cc1=O [CBK305843] | 83.6648
O=c1cc2oc3cc(O)c(O)cc3c(-c3cccc(OCc4ccc([N+](=O)[O-])cc4)c3)c-2cc1O [CBK265388] | 92.7158
COc1ccc(-c2cc(C3CCCCCN3)no2)cc1 (stereo not shown) [CBK285399] | 89.638

Structure (SMILES) | % of control remaining
NC(=O)c1cccnc1N1CCN(CCCN(c2ccc(F)cc2)c2ccc(F)cc2)CC1 [CBK025341C] | 82.1179
CC1CN(Cc2nc3c(c(=O)n(C)c(=O)n3C)n2CCN2CCOCC2)CC(C)O1 (stereo not shown) [CBK269340] | 97.0675
C#C[C@H]1C[N@@]2CC[C@H]1C[C@@H]2CNC(=O)Nc1cccc(C#N)c1 [CBK288754] | 91.0653
COC(=O)CN1C(=O)CC2(C1=O)C(=O)N(Cc1ccccc1)c1ccc(F)cc12 (stereo not shown) [CBK075143] | 69.1699
Nc1ccc(-c2ccc(OC(F)(F)F)cc2)c2ccccc12 [CBK084327] | 26.3031
Cc1c(C(=O)O)c2cc(O)ccc2n1-c1ccccc1 [CBK115329] | 74.2178
CCN(CC)CC(c1ccccc1)C(O)c1ccc(OC)cc1 (stereo not shown) [CBK262074C] | 94.0299
N/C(=N\OCC(=O)Nc1cccc([N+](=O)[O-])c1)c1nonc1N [CBK262044] | 103.818
COc1ccc(NC(=O)CN2CCN(c3ccccc3OC)CC2)c([N+](=O)[O-])c1 [CBK269188] | 79.7041
Cc1ccc(OCc2occc2C(=O)N2CCC(O)(CN(C)C)C2)cc1 (stereo not shown) [CBK307341] | 42.9412
O=C(O)CC(CP(c1ccccc1)c1ccccc1)C(=O)O (stereo not shown) [CBK260931] | 89.576
COc1ccc(-c2cnc3[nH]c(=O)n([C@H](C)c4ccccc4)c3n2)c(OC)c1OC [CBK064236] | 82.2374
O=C(O)c1ccc(NC(=O)c2ncn(-c3ccccc3)n2)cc1 [CBK269445] | 101.692
Nc1cccc(-c2ccc(NCc3cc(F)c(F)c(F)c3)nc2)c1 [CBK036985] | 61.2844
O=C(COc1ccc(S(=O)(=O)N2CCCCC2)cc1Cl)NCc1ccccn1 [CBK269253] | 95.926
O=C(Nc1cccc(NC(=S)NC(=O)c2ccc(Cl)cc2Cl)c1)c1ccccc1F [CBK264828] | 102.415
CCOC(=O)Cc1csc(NS(=O)(=O)c2ccc(OC(F)(F)F)cc2)n1 [CBK000852] | 86.0865
FC(F)(F)c1cccc(-c2cn3ccnc3c(NCc3ccncc3)n2)c1 [CBK066632] | 73.6113
Cc1ccccc1C(=O)Nc1cccc(NC(=O)c2nc[nH]n2)c1 [CBK267108] | 132.58
CNC(=O)c1ccc(-c2cc(OC)c(OC)c(OC)c2)nc1NCC1CC1 [CBK106312] | 87.9781
CN1CCN(c2ccccc2NC(=S)NC(=O)c2ccc(N3CCCCC3)c([N+](=O)[O-])c2)CC1 [CBK268520C] | 59.469
Cc1ccc(-c2cc(C(=O)Nc3cccnc3)n[nH]2)c(O)c1C [CBK288158] | 88.6569
CC1CC(C)CN(C(=O)Cn2ncc3cccn3c2=O)C1 (stereo not shown) [CBK283805] | 101.146
COCCc1nsc(N2CCC(N(C)c3cccnn3)CC2)n1 [CBK304701] | 63.7321
C(=C/c1ccccc1)/C=N/c1ccc2nc(-c3ccc(/N=C/C=C/c4ccccc4)cc3)[nH]c2c1 [CBK261656] | 99.8638
